From PubChem BioAssay AID463173 (ICCB-Longwood Screening Facility, Harvard Medical School, 2010)
Out of some 52,000 compounds screened, about 4,300 (8.3%) were called active. Cut-off read from the data, not from the text of the source: active = survival mostly below about 52% (no sharp cut-off); inactive = mostly above about 56%. The list shows a part of the results.

The molecules below were run on DeltatarO mutant (assay: growth inhibition of S. aureus wild type versus tarO mutant, primary screen, teichoic acid synthesis inhibitors, RN4220, OD600 (AID 463173)). Conditions: OD600, 18 h, stronger effect = lower value, screened at 18.75 µg/mL (by protocol).

`CCc1ccc(CNC(=O)c2ccc(NC(=O)N3CCCCc4ccccc43)cc2)cc1` was tested. Which survival did it give?
Its survival is inactive: 83%.

Which survival does the source give for `COc1ccc(Cn2c(SCc3ccc(C(=O)NC(C)C)cc3)nc3cccnc32)cc1` here?
Its survival is inactive: 98%.

How did the survival turn out when `COc1ccccc1NC(=O)c1cccc(S(=O)(=O)N2CCCCCC2)c1` was run?
Its survival is active: 40%.

Which survival does the source give for `Cc1c(Cl)cccc1NC(=O)Nc1nnc(N2CCCCCC2)s1` here?
Its survival is inactive: 84%.

For `O=c1ccnc(NCCc2ccccc2)[nH]1`, which survival is on record?
The survival was inactive: 104%.

How did the survival turn out when `Cc1ccc(C(=O)Nc2cccc(C(=O)O)c2)cc1S(=O)(=O)N1CCCC1` was run?
Its survival is inactive: 81%.

How did the survival turn out when `O=C(Cn1ncc2ccc(Cl)cc21)NCc1ccc(F)cc1` was run?
The survival was inactive: 104%.

Which survival does the source give for `CSc1cccc(Nc2nc3c(S(=O)(=O)c4ccccc4)nnn3c3ccc(Cl)cc23)c1` here?
The survival was inactive: 75%.

Which survival does the source give for `Cc1ccc(C)c(NC(=O)CSc2ncc(S(=O)(=O)c3ccc(C)c(Cl)c3)c(=O)[nH]2)c1` here?
The survival was inactive: 66%.

For `O=C(c1ccc2c(c1)N(Cc1ccc(F)cc1)C(=O)c1ccccc1S2=O)N1CCC(Cc2ccccc2)CC1` (stereo not drawn), which survival is on record?
The survival was inactive: 84%.

For `O=C(Cn1c(=O)nc(-c2ccccc2F)c2cc(Cl)ccc21)N1CCN(c2ccccc2F)CC1`, which survival is on record?
Its survival is inactive: 99%.

How did the survival turn out when `CCCCC(CC)CNC(=O)CN1C(=O)CSc2ccc(S(=O)(=O)N3CCOCC3)cc21` (stereo not drawn) was run?
Its survival is inactive: 84%.

How did the survival turn out when `CCOc1ccccc1N(CC)C(=O)c1cc2c(=O)[nH]c3ccc(C)cc3c2s1` was run?
The survival was inactive: 74%.

With `COc1ccc(CNC(=O)c2c3c(nc4ccccc24)C(=O)N(C2CCCCC2)C3)c(OC)c1` as the molecule, how does the survival read?
Its survival is active: 32%.

How did the survival turn out when `COC(=O)c1scc(-c2ccc(C)cc2)c1S(=O)(=O)Nc1cc(OC)c(OC)c(OC)c1` was run?
Its survival is inactive: 96%.

With `C=C(C)CSc1nc2sc3c(c2c(=O)n1-c1ccccc1)CC(C(C)C)OC3` (stereo not drawn) as the molecule, how does the survival read?
The survival was inactive: 76%.

With `CCC1CN(C(=O)N2CCC(C(=O)NCc3cccc(C)c3)CC2)c2ccccc2O1` (stereo not drawn) as the molecule, how does the survival read?
The survival was inactive: 77%.

Which survival does the source give for `NC(=O)CSc1nc2cc(Cl)ccc2s1` here?
Its survival is inactive: 100%.

For `COc1ccc(CNC(=O)C(=O)Nc2ccc(OC)cc2OC)cc1`, which survival is on record?
Its survival is inactive: 67%.

How did the survival turn out when `O=C(O)C1C2C=CC(C2)C1C(=O)NCc1cccs1` (stereo not drawn) was run?
The survival was inactive: 83%.

How did the survival turn out when `CCOC(=O)c1cnc2c(C)c(Cl)ccc2c1NCCc1ccccc1` was run?
Its survival is active: -3%.

How did the survival turn out when `Clc1cccc(-n2ncc3c(N4CCCCC4)ncnc32)c1` was run?
Its survival is inactive: 118%.

How did the survival turn out when `O=C(Cn1cc(S(=O)(=O)Cc2cccc(Cl)c2)c2ccccc21)NCCc1ccccc1` was run?
The survival was inactive: 74%.

For `Cc1ccc(NC(=O)/C(C#N)=C/c2ccc(C(C)C)cc2)cc1C`, which survival is on record?
Its survival is inactive: 81%.

How did the survival turn out when `CCN(c1cccc(C)c1)S(=O)(=O)c1ccc2[nH]cc(C(=O)NCCCOC)c(=O)c2c1` was run?
The survival was inactive: 67%.

Which survival does the source give for `CC(=O)Nc1nonc1-c1nnc(SCC(=O)N(C)c2ccccc2)n1C` here?
The survival was inactive: 48%.

How did the survival turn out when `COc1cc2c3c(c1OC)C1(C=CC(=NNC(N)=O)C=C1)CC3N(C(C)=O)CC2` (stereo not drawn) was run?
Its survival is inactive: 79%.

Which survival does the source give for `COc1cccc(C(=O)NC2CCSC2=O)c1` (stereo not drawn) here?
The survival was inactive: 75%.

With `O=C(NCCc1ccccc1)c1cnc2sc(N3CCCC3)nn2c1=O` as the molecule, how does the survival read?
The survival was inactive: 85%.

Which survival does the source give for `CCN1CCN(CCCNC(=O)c2cc3c(=O)n(C)c4ccccc4c3s2)CC1` here?
The survival was inactive: 79%.

For `Cc1cccc(OCCn2c(-c3ccc(Cl)cc3)nc3ccccc3c2=O)c1`, which survival is on record?
The survival was inactive: 105%.

`CCCc1nn2c(=O)cc(COC(=O)c3cccc(NC(=O)COc4ccccc4C)c3)nc2s1` was tested. Which survival did it give?
Its survival is inactive: 83%.

Which survival does the source give for `O=C(c1cc(-c2ccccc2)on1)N1CCCc2ccccc21` here?
Its survival is inactive: 86%.

Which survival does the source give for `CCc1ccccc1NC(=O)Cn1c(=O)n(Cc2ccc3c(c2)OCO3)c(=O)c2ccc(C(=O)NC3CCCCC3)cc21` here?
The survival was inactive: 119%.

How did the survival turn out when `Cc1ccccc1-c1nc(CS(=O)(=O)CC(=O)NCC(C)c2ccccc2)c(C)o1` (stereo not drawn) was run?
The survival was inactive: 48%.

For `COc1cc(OC)c(NC(=O)C2CCCN(c3ncnc4c3nc3n4CCCCC3)C2)cc1Cl` (stereo not drawn), which survival is on record?
The survival was inactive: 122%.

For `O=C(COc1ccccc1Cl)NCC1(N2CCOCC2)CCCCC1`, which survival is on record?
Its survival is inactive: 106%.

For `CCc1ccc(OCC(=O)Nc2cc3oc4ccccc4c3cc2OC)cc1`, which survival is on record?
The survival was active: 47%.

How did the survival turn out when `CCOC(=O)c1ccc(Nc2c(-c3ccc(O)c(OC)c3)nc3nc[nH]n23)cc1` was run?
Its survival is inactive: 93%.

For `CC(C)(C)OC(=O)N1CC=C2C(C1)C(c1cccc(F)c1)C(C#N)=C(N)C2(C#N)C#N` (stereo not drawn), which survival is on record?
The survival was inactive: 79%.

How did the survival turn out when `CC1Cc2cc(S(=O)(=O)N3CCN(c4ccccc4F)CC3)ccc2N1C(=O)C1CCC1` (stereo not drawn) was run?
Its survival is inactive: 95%.

`Cc1cc(F)ccc1S(=O)(=O)NCC(c1ccco1)S(=O)(=O)c1cccs1` (stereo not drawn) was tested. Which survival did it give?
Its survival is inactive: 118%.

For `CC1CCCC(C)N1C(=O)CN1CCC(O)(c2ccccc2)CC1` (stereo not drawn), which survival is on record?
Its survival is inactive: 104%.

For `Cc1cc2nnc(SCC(=O)Nc3ccc(F)c(Cl)c3)n2c2ccccc12`, which survival is on record?
Its survival is inactive: 82%.

`COc1cc(NS(=O)(=O)c2ccc3c(c2)CCN3S(C)(=O)=O)cc(OC)c1` was tested. Which survival did it give?
The survival was inactive: 102%.

Which survival does the source give for `CCCCOc1ccc(C(=O)N2CCN(CCc3ccncc3)CC2)cc1` here?
The survival was inactive: 105%.

`COC(=O)C1=C(CS(=O)(=O)c2cc(Cl)ccc2OC)NC(=O)NC1c1ccccc1` (stereo not drawn) was tested. Which survival did it give?
The survival was inactive: 78%.

Which survival does the source give for `Cc1ccc(-c2nc3ccccc3[nH]2)cc1NC(=O)C(C)C` here?
The survival was inactive: 70%.

`CC(=O)c1c(C)nc2nc(-c3ccccc3)nn2c1C` was tested. Which survival did it give?
Its survival is inactive: 68%.

`COCCCNC(=O)c1oc2c(c1C)-c1nn(Cc3cccc(Cl)c3)cc1CC2` was tested. Which survival did it give?
Its survival is inactive: 72%.

`COc1ccccc1N1CCN(C(=O)c2nn(-c3ccc(C)cc3)c(=O)n(C)c2=O)CC1` was tested. Which survival did it give?
Its survival is inactive: 75%.

For `Cc1cccc(NC(=O)c2ccc(N(Cc3ccccc3)S(C)(=O)=O)cc2)c1`, which survival is on record?
Its survival is active: 48%.

`CCN(CCCNC(=O)c1cc2c(=O)n(C)c3ccccc3c2s1)Cc1ccccc1` was tested. Which survival did it give?
Its survival is inactive: 94%.

For `CCN(CC)CCSc1nc2ccc(OC)cc2[nH]1`, which survival is on record?
Its survival is active: 70%.

Which survival does the source give for `Cc1ccc2c(c1)C(c1ccc(F)cc1)N(C(=O)COc1ccc(Cl)cc1Cl)CC(=O)N2` (stereo not drawn) here?
The survival was active: 45%.

For `CC1=Nc2ccccc2N=C(C)C1`, which survival is on record?
The survival was inactive: 89%.

For `O=C(CSc1c2c(nc3ccc(Cl)cc13)CCCC2)N1CCN(c2cccc(Cl)c2)CC1`, which survival is on record?
The survival was active: 51%.

Which survival does the source give for `COc1ccc(CNC(=O)c2cnc3sc(N4CCCC4)nn3c2=O)cc1OC` here?
Its survival is inactive: 71%.
